Several values for one entry are separate records, joined by “and”; a condition that tells them apart may be missing. Identical values can stand only once.
How the values were obtained:
[1] = biological target: liraglutide fibrils (human) (UniProt P01275); test: ELISA Assay (VI-B); 0.025 uM fibrils in 1600 uM soluble liraglutide; 50 nM antibody; average of 4 experiments
[2] = biological target: liraglutide fibrils (human) (UniProt P01275); test: ELISA Assay (VI-B); 0.25 uM fibrils in 1600 uM soluble liraglutide; 50 nM antibody; average of 4 experiments
[3] = biological target: liraglutide fibrils (human) (UniProt P01275); test: ELISA Assay (VI-B); 2.5 uM fibrils in 1600 uM soluble liraglutide; 50 nM antibody
[4] = biological target: liraglutide fibrils (human) (UniProt P01275); test: ELISA Assay (VI-B); 10 uM fibrils in 1600 uM soluble liraglutide; 50 nM antibody; average of 4 experiments
[5] = biological target: liraglutide fibrils (human) (UniProt P01275); test: ELISA Assay (VI-B); 0.100 uM fibrils in 1600 uM soluble liraglutide; 50 nM antibody
[6] = biological target: soluble liraglutide (human) (UniProt P01275); test: ELISA Assay (III-B); row labelled 0.10 uM; two-step purified antibody; raw signal, mean of 3
[7] = biological target: liraglutide fibrils (human) (UniProt P01275); test: as above
[8] = biological target: soluble liraglutide (human) (UniProt P01275); test: ELISA Assay (III-B); row labelled 0.03 uM; two-step purified antibody; raw signal, mean of 3
[9] = biological target: liraglutide fibrils (human) (UniProt P01275); test: as above
[10] = biological target: liraglutide fibrils (human) (UniProt P01275); test: ELISA Assay (VI-B); 0.025 uM fibrils in 1600 uM soluble liraglutide; 50 nM antibody
[11] = biological target: liraglutide fibrils (human) (UniProt P01275); test: ELISA Assay (VI-B); 0.1 uM fibrils in 1600 uM soluble liraglutide; 50 nM antibody; average of 4 experiments
[12] = biological target: liraglutide fibrils (human) (UniProt P01275); test: ELISA Assay (III-B); row labelled 0.03 uM; two-step purified antibody; A450 ratio, mean of 3
[13] = biological target: liraglutide fibrils (human) (UniProt P01275); test: ELISA Assay (III-B); row labelled 30 uM; two-step purified antibody; A450 ratio, mean of 3
[14] = biological target: liraglutide fibrils (human) (UniProt P01275); test: ELISA Assay (III-B); row labelled 3 uM; two-step purified antibody; A450 ratio, mean of 3
[15] = biological target: liraglutide fibrils (human) (UniProt P01275); test: ELISA Assay (VI-B); 0.0025 uM fibrils in 1600 uM soluble liraglutide; 50 nM antibody
[16] = biological target: liraglutide fibrils (human) (UniProt P01275); test: ELISA Assay (VI-B); 0.250 uM fibrils in 1600 uM soluble liraglutide; 50 nM antibody
[17] = biological target: soluble liraglutide (human) (UniProt P01275); test: ELISA Assay (III-B); row labelled 1 uM; two-step purified antibody; raw signal, mean of 3
[18] = biological target: liraglutide fibrils (human) (UniProt P01275); test: as above
[19] = biological target: liraglutide fibrils (human) (UniProt P01275); test: ELISA Assay (VI-B); 0.010 uM fibrils in 1600 uM soluble liraglutide; 50 nM antibody
[20] = biological target: soluble liraglutide (human) (UniProt P01275); test: ELISA Assay (III-B); row labelled 0.30 uM; two-step purified antibody; raw signal, mean of 3
[21] = biological target: liraglutide fibrils (human) (UniProt P01275); test: as above
[22] = biological target: soluble liraglutide (human) (UniProt P01275); test: ELISA Assay (III-B); row labelled 300 uM; two-step purified antibody; raw signal, mean of 3
[23] = biological target: liraglutide fibrils (human) (UniProt P01275); test: as above
[24] = biological target: liraglutide fibrils (human) (UniProt P01275); test: ELISA Assay (VI-B); 0.025 uM fibrils in 1600 uM soluble liraglutide; 50 nM antibody; remark: listed apart in the source
[25] = biological target: liraglutide fibrils (human) (UniProt P01275); test: ELISA Assay (VI-B); 0.01 uM fibrils in 1600 uM soluble liraglutide; 50 nM antibody; average of 4 experiments
[26] = biological target: soluble liraglutide (human) (UniProt P01275); test: ELISA Assay (III-B); row labelled 100 uM; two-step purified antibody; raw signal, mean of 3
[27] = biological target: liraglutide fibrils (human) (UniProt P01275); test: as above
[28] = biological target: liraglutide fibrils (human) (UniProt P01275); test: ELISA Assay (VI-B); 2.500 uM fibrils in 1600 uM soluble liraglutide; 50 nM antibody
[29] = biological target: soluble liraglutide (human) (UniProt P01275); test: ELISA Assay (III-B); row labelled 3 uM; two-step purified antibody; raw signal, mean of 3
[30] = biological target: liraglutide fibrils (human) (UniProt P01275); test: as above
[31] = biological target: soluble liraglutide (human) (UniProt P01275); test: ELISA Assay (III-B); row labelled 10 uM; two-step purified antibody; raw signal, mean of 3
[32] = biological target: liraglutide fibrils (human) (UniProt P01275); test: as above
[33] = biological target: liraglutide fibrils (human) (UniProt P01275); test: ELISA Assay (III-B); row labelled 10 uM; two-step purified antibody; A450 ratio, mean of 3
[34] = biological target: liraglutide fibrils (human) (UniProt P01275); test: ELISA Assay (III-B); row labelled 0.3 uM; two-step purified antibody; A450 ratio, mean of 3

B1: Antibody M (Fc fusion)
scFv: DIQMTQSPSSLSASVGDRVTITCRASQSVAAAVAWYQQKPDKAPKLLIYSASFLYSGVPSRFSGSRSGTDFTLTISSLQPEDFATYYCQQHNTYPPTFGQGTKVEIKRTSPNSASHSGSAPQTSSAPGSQEVQLVESGGGLVQPGGSLRLSCAASGFNIKDTYIHWVRQAPGKGLEWVARISPSSGSTRYAGSVKGRFTISADTSKNTAYLQMNSLRAEDTAVYYCAREWYEASYYDWFDYFDFSDYWGQGTLVTVSSAAA[human IgG1 Fc not written out]GSHHHHHHKLDYKDHDGDYKDHDIDYKDDDDK
**Q.** Which results are given for B1?
**A.** Specificity Ratio (liraglutide fibril in mixture/soluble liraglutide) [1]: 14.4; Specificity Ratio (liraglutide fibril in mixture/soluble liraglutide) [2]: 40.8; Specificity Ratio (liraglutide fibril in mixture/soluble liraglutide) [3]: 50.4 (2×) and 46.6 and 45.8; Specificity Ratio (liraglutide fibril in mixture/soluble liraglutide) [4]: 48.7; Specificity Ratio (liraglutide fibril in mixture/soluble liraglutide) [5]: 32.1; antibody binding signal (absorbance at 450 nm) [6]: 0.04; antibody binding signal (absorbance at 450 nm) [7]: 0.07; antibody binding signal (absorbance at 450 nm) [8]: 0.04; antibody binding signal (absorbance at 450 nm) [9]: 0.07; Specificity Ratio (liraglutide fibril in mixture/soluble liraglutide) [10]: 14.4; Specificity Ratio (liraglutide fibril in mixture/soluble liraglutide) [11]: 32.1; Liraglutide fibril specificity (Liraglutide fibril/Liraglutide monomer) [12]: 1.58; Liraglutide fibril specificity (Liraglutide fibril/Liraglutide monomer) [13]: 16.3; Liraglutide fibril specificity (Liraglutide fibril/Liraglutide monomer) [14]: 5.9; Specificity Ratio (liraglutide fibril in mixture/soluble liraglutide) [15]: 2.45; Specificity Ratio (liraglutide fibril in mixture/soluble liraglutide) [16]: 40.8; antibody binding signal (absorbance at 450 nm) [17]: 0.05; antibody binding signal (absorbance at 450 nm) [18]: 0.15; Specificity Ratio (liraglutide fibril in mixture/soluble liraglutide) [19]: 6.81; antibody binding signal (absorbance at 450 nm) [20]: 0.05; antibody binding signal (absorbance at 450 nm) [21]: 0.09; antibody binding signal (absorbance at 450 nm) [22]: 0.46; antibody binding signal (absorbance at 450 nm) [23]: 3.15; Specificity Ratio (liraglutide fibril in mixture/soluble liraglutide) [24]: 18.2 and 13.7 and 12.8 (2×); Specificity Ratio (liraglutide fibril in mixture/soluble liraglutide) [25]: 6.81; antibody binding signal (absorbance at 450 nm) [26]: 0.21; antibody binding signal (absorbance at 450 nm) [27]: 2.78; Specificity Ratio (liraglutide fibril in mixture/soluble liraglutide) [28]: 48.3; antibody binding signal (absorbance at 450 nm) [29]: 0.05; antibody binding signal (absorbance at 450 nm) [30]: 0.3; antibody binding signal (absorbance at 450 nm) [31]: 0.06; antibody binding signal (absorbance at 450 nm) [32]: 0.73; Liraglutide fibril specificity (Liraglutide fibril/Liraglutide monomer) [33]: 11.7; Liraglutide fibril specificity (Liraglutide fibril/Liraglutide monomer) [34]: 1.9

Reference: patent US20200308274A1
